Test results: the supplement of paper PMC5499739
Whole data set: some 16,000 sequences, median “Z-score” near -0.37, cut for the highest 2% near 3.2. The list shows a part of the results.

tested on: RBM10 RRM1-ZnF (GST-tagged construct); test: RNAcompete 7-mer binding Z-score; higher = stronger binding preference
Procedure: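 RNAcompete: 20 pmol GST-tagged RBM10 RNA-binding constructs were incubated with a designed RNA pool of about 241,000 sequences up to 41 nt (1.5 nmol) on glutathione beads for 30 min at 4 °C and washed. Bound RNAs were identified by microarray hybridisation. Each RNA 7-mer is scored by a one-sided Z-score of its enrichment, computed over probes that contain the 7-mer within longer pool sequences.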

| Sequence | RNAcompete 7-mer binding Z-score |
| --- | --- |
| UUGAGUC | -0.48 |
| CACCCUC | -0.578 |
| UUUGUCU | -0.678 |
| UGCGGCU | 0.0593 |
| UGUAGUA | 0.108 |
| AUUACUC | -0.672 |
| ACAUAUA | -0.714 |
| CGCUGUG | -0.272 |
| UCGACGA | -0.327 |
| CAGUGGA | 1.38 |
| ACUUGAC | -0.763 |
| GAUACGG | 1.82 |
| CUCCCAG | -0.587 |
| GGGCCGA | 0.738 |
| CGUUUAU | -0.62 |
| GUAAGUC | -0.139 |
| AACUUAA | -0.5 |
| UACCCGA | -0.717 |
| GUCUGAC | -0.529 |
| UCUCGAC | -0.873 |
| CGGAAAC | 0.043 |
| GAGUGCU | 0.056 |
| AAGGGAU | 3.65 |

| Sequence | RNAcompete 7-mer binding Z-score |
| --- | --- |
| GAAACCU | -0.802 |
| GCAGAAU | 0.413 |
| CAACUUC | -0.883 |
| AAAUCCA | -0.733 |
| CCUUAUU | -0.922 |
| UGCCGUG | -0.129 |
| UUCCCCC | -0.373 |
| CUGAUCG | -0.535 |
| ACGCCGG | -0.399 |
| AGACAGG | 1.59 |
| UAGUGAC | 0.0398 |
| UGCUGCU | -0.396 |
| GAUAUGC | -0.0577 |
| UUAAUUA | -0.36 |
| AAUUCCC | -0.873 |
| UAUCACA | -0.24 |
| UCGUUGA | -0.483 |
| CGCGCGC | -0.295 |
| CGAACGA | -0.123 |
| CUCGGGA | 0.426 |
| GUGACGA | 0.521 |
| GUAAAGA | 0.547 |
| UAGUGGU | 1.33 |

| Sequence | RNAcompete 7-mer binding Z-score |
| --- | --- |
| UACGCCA | -0.487 |
| GCGACCA | -0.175 |
| CACUACA | -0.685 |
| GUUCCAU | -0.711 |
| AUGGAGA | 2.62 |
| UCGAGAC | -0.344 |
| GACCGUA | -0.62 |
| UCGAUAG | -0.149 |
| ACUCUUA | -0.896 |
| GGGGAAA | 3.19 |
| UCCAGAG | -0.35 |
| AUGGAAA | 2.57 |
| CACCAUA | -0.691 |
| UGGCGCC | -0.158 |
| GCUAGAG | 0.543 |
| AGGACUA | -0.0934 |
| AACGAUU | -0.483 |
| UAAAAAG | 0.16 |
| ACCGGGU | 0.631 |
| UUAGGCU | 0.095 |
| UGUAUAG | 0.0528 |
| CAACUCG | -0.691 |
| AGCGCUC | -0.746 |

| Sequence | RNAcompete 7-mer binding Z-score |
| --- | --- |
| GUCCGUC | -0.366 |
| UCUCAGC | -0.678 |
| AUCCCAG | -0.409 |
| GAAUCAC | -0.321 |
| AUACUUG | -0.555 |
| UUAAAUG | -0.331 |
| CUGACUG | -0.217 |
| GUAGCUA | -0.0642 |
| CACGAAG | -0.11 |
| GCCGACC | -0.389 |
| CAUGUGG | 0.748 |
| UACUUUC | -0.974 |
| UCGACGU | -0.555 |
| UGGGUGG | 4.14 |
| AAGGUCU | -0.0739 |
| CGAUGCA | -0.392 |
| AUGCCCU | -0.808 |
| UAACGUA | -0.282 |
| AGCACGC | -0.188 |
| CUCACUU | -0.925 |
| AUCUGAC | -0.548 |
| GUCCACA | -0.418 |
| CAGGUUC | -0.0609 |

| Sequence | RNAcompete 7-mer binding Z-score |
| --- | --- |
| AUUAUUU | -0.571 |
| CUUAAAG | -0.763 |
| UUUGUAC | -0.617 |
| CGGUGUA | 0.654 |
| UCGCUGG | -0.0382 |
| CGCACCG | -0.292 |
| ACAGCCA | -0.626 |
| CUCCCCG | -0.23 |
| AUACCAG | -0.292 |
| ACUGGAU | 0.582 |
| AAGCGGC | 0.199 |
| CUCGUCG | -0.513 |
| UGUGGUA | 1.37 |
| GCAGUAC | -0.0187 |
| UCGAUGA | -0.331 |
| AAGGUUU | 2.51 |
| GUGUAUA | 0.654 |
| CACCUCU | -0.828 |
| UGUGUAC | -0.207 |
| CUCUCUU | -0.873 |
| AUACCAC | -0.578 |
| UACCACC | -0.629 |
| CUCUUAA | -0.802 |

| Sequence | RNAcompete 7-mer binding Z-score |
| --- | --- |
| CCCGUAU | -0.828 |
| CGAGCCU | -0.61 |
| GACCCGC | -0.724 |
| GAUUAUA | -0.0382 |
| CCGUAUU | -0.844 |
| CCGUGUU | -0.617 |
| CUCGGAC | -0.542 |
| CAAGUGC | -0.256 |
| GGCUUGU | -0.243 |
| GCUCCUG | -0.392 |
| GACAAAG | 0.803 |
| AAGUGCA | 0.017 |
| UAACCCG | -0.668 |
| UGGAACU | 0.696 |
| CACUCUU | -0.873 |
| UCCAGGG | 0.865 |
| GUGAGCA | 0.582 |
| CUAGCAU | -0.642 |
| UAAGGGA | 3.27 |
| CAUUAGA | -0.493 |
| UUACACU | -0.724 |
| UGAAGAG | 1.15 |
| UGGGAAA | 2.58 |

| Sequence | RNAcompete 7-mer binding Z-score |
| --- | --- |
| GCCACGG | 0.332 |
| CGAGCUG | -0.171 |
| CUUAAUA | -0.73 |
| ACACGUG | -0.0934 |
| UGCCUGG | -0.223 |
| ACGCUCC | -0.698 |
| UUGACGU | -0.448 |
| UUAUUAC | -0.594 |
| UUUGGAC | -0.223 |
| GCCCGAC | -0.532 |
| CAGCUGC | -0.474 |
| AGCCGCG | -0.386 |
| CCAUCCC | -0.591 |
| CCAACCU | -0.785 |
| UUUGGGU | 2.47 |
| GGUCCAG | 0.0398 |
| GUCAAGG | 1.6 |
| CAGACCG | -0.392 |
| UUUCACG | -0.766 |
| GUACUCU | -0.6 |
| GUUUGAC | -0.292 |
| AACUUUU | -0.798 |
| GUCUCCA | -0.714 |

| Sequence | RNAcompete 7-mer binding Z-score |
| --- | --- |
| ACAGCUG | -0.256 |
| CUUUGCG | -0.821 |
| UGCAAGC | -0.62 |
| CAUGAGG | 1.03 |
| UAACUCG | -0.665 |
| CUGCUGA | -0.379 |
| CAACGGA | 0.563 |
| ACACACG | -0.256 |
| ACCGACU | -0.766 |
| GACAUGA | 0.235 |
| UGCCCCU | -0.22 |
| AGUAGGC | 0.975 |
| CCACGGC | -0.474 |
| UAGAUUC | -0.379 |
| UAAACCC | -0.714 |
| UCGGGCC | -0.376 |
| AGAUCGA | -0.344 |
| GUGUUAC | -0.308 |
| GCUGGCC | -0.308 |
| GAACAGA | 0.439 |
| AGAGCAU | -0.366 |
| GCCUGUU | -0.724 |
| UCCUAAU | -0.711 |
